In article PMC11094075:
Results are given in words; binding and its absence hold for the method and conditions named. Binding seen in cells or lysates may run through a third protein. Some results given as binding are weak or reduced against the parent protein; the word gives no strength. Each block holds one substance with its values, some of them ahead of it.

Protein sequences, listed by entry. Tags and fused reporters are not part of them. Lines headed by an entry give the natural chain unless they say otherwise; changes in a name come on top. Chains listed by the source or under a name are the forms on record and can include a tag or linker. Residues count along the entry.
UniProt Q9UKV8: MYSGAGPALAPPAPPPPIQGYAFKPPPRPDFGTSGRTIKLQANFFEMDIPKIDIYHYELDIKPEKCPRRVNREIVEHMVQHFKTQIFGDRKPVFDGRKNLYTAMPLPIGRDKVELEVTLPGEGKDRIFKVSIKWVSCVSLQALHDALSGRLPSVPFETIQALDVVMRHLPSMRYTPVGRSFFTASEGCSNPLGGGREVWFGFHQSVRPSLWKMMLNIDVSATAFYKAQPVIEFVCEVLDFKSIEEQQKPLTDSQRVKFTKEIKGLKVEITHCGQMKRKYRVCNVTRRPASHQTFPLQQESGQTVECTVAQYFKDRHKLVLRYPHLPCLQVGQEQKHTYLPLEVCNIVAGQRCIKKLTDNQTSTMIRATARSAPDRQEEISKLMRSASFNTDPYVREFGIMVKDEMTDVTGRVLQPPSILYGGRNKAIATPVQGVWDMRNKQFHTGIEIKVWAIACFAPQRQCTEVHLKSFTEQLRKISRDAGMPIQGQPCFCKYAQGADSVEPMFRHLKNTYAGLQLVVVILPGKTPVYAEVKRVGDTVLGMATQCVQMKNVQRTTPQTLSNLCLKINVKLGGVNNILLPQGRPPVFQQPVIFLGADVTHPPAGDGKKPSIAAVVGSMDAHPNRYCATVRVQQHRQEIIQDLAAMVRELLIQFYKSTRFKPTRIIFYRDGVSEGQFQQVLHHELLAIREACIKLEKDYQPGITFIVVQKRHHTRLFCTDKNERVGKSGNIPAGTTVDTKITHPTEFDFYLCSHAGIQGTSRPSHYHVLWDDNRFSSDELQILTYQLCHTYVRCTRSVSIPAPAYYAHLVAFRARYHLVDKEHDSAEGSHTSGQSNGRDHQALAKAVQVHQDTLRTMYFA
HA-Ago2(1–580): residues 1-580 of Q9UKV8
HA-Ago2(1–445): residues 1-445 of Q9UKV8
HA-Ago2(1–226): residues 1-226 of Q9UKV8
HA-Ago2(1–200): residues 1-200 of Q9UKV8
HA-Ago2(1–175): residues 1-175 of Q9UKV8
HA-Ago2(73–859): residues 73-859 of Q9UKV8
HA-Ago2(175–859): residues 175-859 of Q9UKV8
eGFP-Ago2(175–226)-His: residues 175-226 of Q9UKV8
HA-Ago2(226–859): residues 226-859 of Q9UKV8
175–226-deleted HA-Ago2(∆175–226), in HEK293 (Q9UKV8, form named): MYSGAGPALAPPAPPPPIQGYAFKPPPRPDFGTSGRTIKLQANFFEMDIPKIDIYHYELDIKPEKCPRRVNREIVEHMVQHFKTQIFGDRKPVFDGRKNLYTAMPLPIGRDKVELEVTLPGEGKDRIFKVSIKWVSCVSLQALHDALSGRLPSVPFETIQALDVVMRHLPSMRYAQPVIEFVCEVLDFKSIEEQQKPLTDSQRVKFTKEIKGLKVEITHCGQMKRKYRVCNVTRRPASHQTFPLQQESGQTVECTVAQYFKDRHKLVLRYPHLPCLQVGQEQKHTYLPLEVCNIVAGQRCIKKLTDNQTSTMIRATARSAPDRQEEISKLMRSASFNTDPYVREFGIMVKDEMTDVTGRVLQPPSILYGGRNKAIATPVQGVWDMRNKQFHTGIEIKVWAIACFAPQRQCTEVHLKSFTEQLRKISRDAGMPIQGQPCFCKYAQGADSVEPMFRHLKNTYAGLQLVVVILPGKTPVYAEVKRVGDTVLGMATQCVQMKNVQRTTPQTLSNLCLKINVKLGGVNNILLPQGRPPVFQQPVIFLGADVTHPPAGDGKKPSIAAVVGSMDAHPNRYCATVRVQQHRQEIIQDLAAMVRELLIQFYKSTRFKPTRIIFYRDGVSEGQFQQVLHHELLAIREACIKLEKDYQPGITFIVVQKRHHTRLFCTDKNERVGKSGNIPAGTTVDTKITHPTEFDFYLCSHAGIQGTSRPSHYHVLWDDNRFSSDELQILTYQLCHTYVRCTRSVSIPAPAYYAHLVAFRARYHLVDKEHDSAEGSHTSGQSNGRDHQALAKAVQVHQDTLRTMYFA
CBM-mutated HA-Ago2 (WF199/200/202/211A) (Q9UKV8, form named): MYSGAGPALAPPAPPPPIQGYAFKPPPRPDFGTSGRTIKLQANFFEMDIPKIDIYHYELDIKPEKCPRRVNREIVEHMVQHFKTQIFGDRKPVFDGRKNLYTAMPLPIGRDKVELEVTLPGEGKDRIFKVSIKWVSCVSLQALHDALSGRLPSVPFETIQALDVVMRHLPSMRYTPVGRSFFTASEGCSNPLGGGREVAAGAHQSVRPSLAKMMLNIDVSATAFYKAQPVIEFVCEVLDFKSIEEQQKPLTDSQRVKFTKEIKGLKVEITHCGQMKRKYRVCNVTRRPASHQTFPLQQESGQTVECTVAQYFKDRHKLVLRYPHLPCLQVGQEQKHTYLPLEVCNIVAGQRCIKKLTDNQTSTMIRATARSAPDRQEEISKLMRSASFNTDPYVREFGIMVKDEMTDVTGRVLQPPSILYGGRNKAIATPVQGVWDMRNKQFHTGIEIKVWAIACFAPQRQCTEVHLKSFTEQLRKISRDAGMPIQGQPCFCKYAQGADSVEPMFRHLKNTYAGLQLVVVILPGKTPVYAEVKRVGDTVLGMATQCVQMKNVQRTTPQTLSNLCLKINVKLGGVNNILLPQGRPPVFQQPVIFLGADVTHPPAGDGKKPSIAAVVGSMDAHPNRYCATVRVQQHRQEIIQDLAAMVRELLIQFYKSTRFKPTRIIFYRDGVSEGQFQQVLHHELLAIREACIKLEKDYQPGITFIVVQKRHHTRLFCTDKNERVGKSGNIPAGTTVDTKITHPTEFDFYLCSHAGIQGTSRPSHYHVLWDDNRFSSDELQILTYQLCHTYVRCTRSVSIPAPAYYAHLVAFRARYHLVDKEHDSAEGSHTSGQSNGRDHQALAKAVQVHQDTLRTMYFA
HA-Ago2 (WF199/200AA) (Q9UKV8, form named): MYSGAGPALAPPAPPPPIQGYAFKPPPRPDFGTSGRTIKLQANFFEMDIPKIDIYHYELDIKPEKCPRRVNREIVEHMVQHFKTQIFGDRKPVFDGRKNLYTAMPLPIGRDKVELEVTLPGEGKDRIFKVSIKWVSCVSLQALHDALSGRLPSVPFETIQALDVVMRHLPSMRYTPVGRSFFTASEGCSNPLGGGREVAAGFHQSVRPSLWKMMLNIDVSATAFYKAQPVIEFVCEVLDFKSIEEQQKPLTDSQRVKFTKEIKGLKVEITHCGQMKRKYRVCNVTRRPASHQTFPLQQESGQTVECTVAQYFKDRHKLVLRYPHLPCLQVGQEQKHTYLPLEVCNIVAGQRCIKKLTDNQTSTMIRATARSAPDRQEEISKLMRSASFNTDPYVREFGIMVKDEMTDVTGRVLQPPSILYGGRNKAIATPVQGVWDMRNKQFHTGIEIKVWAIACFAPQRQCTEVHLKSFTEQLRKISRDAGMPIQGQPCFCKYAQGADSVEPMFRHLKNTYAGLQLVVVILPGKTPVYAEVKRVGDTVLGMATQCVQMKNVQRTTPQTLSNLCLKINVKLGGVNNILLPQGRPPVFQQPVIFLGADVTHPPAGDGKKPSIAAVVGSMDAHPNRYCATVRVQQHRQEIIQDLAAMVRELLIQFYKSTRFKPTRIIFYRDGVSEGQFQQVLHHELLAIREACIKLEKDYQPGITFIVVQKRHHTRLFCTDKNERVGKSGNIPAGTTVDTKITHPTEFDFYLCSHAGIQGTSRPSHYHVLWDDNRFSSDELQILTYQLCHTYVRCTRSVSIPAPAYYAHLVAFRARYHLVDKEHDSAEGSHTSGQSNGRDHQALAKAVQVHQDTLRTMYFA
UniProt Q03135: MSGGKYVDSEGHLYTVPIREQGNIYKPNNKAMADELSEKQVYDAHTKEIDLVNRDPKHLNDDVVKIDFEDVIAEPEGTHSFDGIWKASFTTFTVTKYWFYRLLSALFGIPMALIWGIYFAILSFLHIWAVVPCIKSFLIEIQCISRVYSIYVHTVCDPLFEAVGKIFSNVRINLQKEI
CAV1-Flag(∆61–84) (Q03135, form named): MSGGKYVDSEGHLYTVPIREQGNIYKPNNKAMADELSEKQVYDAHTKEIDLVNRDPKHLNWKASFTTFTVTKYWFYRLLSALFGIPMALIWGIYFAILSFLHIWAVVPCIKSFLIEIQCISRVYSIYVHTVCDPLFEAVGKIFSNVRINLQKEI
CAV1-Flag(∆84–102) (Q03135, form named): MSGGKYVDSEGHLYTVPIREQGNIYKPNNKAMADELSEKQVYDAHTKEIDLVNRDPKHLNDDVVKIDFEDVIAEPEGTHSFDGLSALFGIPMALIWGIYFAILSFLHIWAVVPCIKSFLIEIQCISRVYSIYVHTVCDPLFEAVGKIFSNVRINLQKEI

Tests used:
[1] = target: HA-tagged human Ago2 (HA-Ago2), full length, wild type (human) (UniProt Q9UKV8); assay: co-IP; proteins co-expressed in HEK293 cells; IP with anti-HA (anti-His for the eGFP fusions), blot with anti-Flag or anti-His; PBS with 0.5% Nonidet P-40, 4 °C
[2] = target: Argonaute-2 (Ago2), endogenous (human (endogenous in human cell lines and tumors)) (UniProt Q9UKV8); assay: co-IP; A549 cell-derived extracellular vesicles; IP with anti-Ago2, blot for CAV1
[3] = target: Argonaute-2 (Ago2), endogenous (human (endogenous in human cell lines and tumors)) (UniProt Q9UKV8); assay: co-IP; human primary breast tumors and paired lymphatic metastases; IP with anti-Ago2, blot for CAV1
[4] = target: Argonaute-2 (Ago2), endogenous (human (endogenous in human cell lines and tumors)) (UniProt Q9UKV8); assay: co-IP; endogenous proteins in A549 and HCC1806 cells treated with P2 or P2S peptide; IP with anti-Ago2, blot for CAV1
[5] = target: HA-tagged CBM-deleted (amino acids 175–226) Ago2 (HA-Ago2∆), in Ago2-knockout A549 cells (human) (UniProt Q9UKV8); assay: co-IP; A549 Ago2-KO/HA-AID-Ago2Wt/HA-Ago2∆ cells treated with IAA (only HA-Ago2∆ left); IP with anti-HA, blot for CAV1
[6] = target: HA-Ago2K212R, in Ago2-knockout A549 and HCC1806 cells (human) (UniProt Q9UKV8); assay: co-IP; Ago2-knockout A549 and HCC1806 cells expressing HA-Ago2Wt, HA-Ago2K212A or HA-Ago2K212R; IP with anti-HA, blot for endogenous CAV1; ratio pCAV1/pHA; vehicle or TM (10 µM)
[7] = target: Argonaute-2 (Ago2), endogenous (human (endogenous in human cell lines and tumors)) (UniProt Q9UKV8); assay: condition: only in normal epithelial cells (BEAS-2B, HPNE, HMLE); co-IP; endogenous proteins in lysates of normal epithelial cells (BEAS-2B, HPNE, HMLE); IP with anti-Ago2, blot for CAV1
[8] = target: Argonaute-2 (Ago2), endogenous (human (endogenous in human cell lines and tumors)) (UniProt Q9UKV8); assay: co-IP; endogenous proteins in lysates of cancer cells (A549, H1299, BxPC-3, HCC1806, 104-S, C4-2, R-1); IP with anti-Ago2, blot for CAV1; PBS with 0.5% Nonidet P-40 and 5% BSA, 4 °C; also cells treated with vehicle, Nexturastat A, Sirtinol, EX-527 or TM
[9] = target: 175–226-deleted HA-Ago2(∆175–226), in HEK293 (human) (UniProt Q9UKV8); assay: co-IP; proteins co-expressed in HEK293 cells; IP with anti-HA (anti-His for the eGFP fusions), blot with anti-Flag or anti-His; PBS with 0.5% Nonidet P-40, 4 °C
[10] = target: CBM-mutated HA-Ago2 (WF199/200/202/211A) (human) (UniProt Q9UKV8); assay: as above
[11] = target: HA-Ago2 (F202A) (human) (UniProt Q9UKV8); assay: as above
[12] = target: HA-Ago2 (S387A) (human) (UniProt Q9UKV8); assay: as above
[13] = target: HA-Ago2 (S387E) (human) (UniProt Q9UKV8); assay: as above
[14] = target: HA-Ago2 (W211A) (human) (UniProt Q9UKV8); assay: as above
[15] = target: HA-Ago2 (WF199/200AA) (human) (UniProt Q9UKV8); assay: as above
[16] = target: HA-Ago2(175–859) (human) (UniProt Q9UKV8); assay: as above
[17] = target: HA-Ago2(1–175) (human) (UniProt Q9UKV8); assay: as above
[18] = target: HA-Ago2(1–200) (human) (UniProt Q9UKV8); assay: as above
[19] = target: HA-Ago2(1–226) (human) (UniProt Q9UKV8); assay: as above
[20] = target: HA-Ago2(1–445) (human) (UniProt Q9UKV8); assay: as above
[21] = target: HA-Ago2(1–580) (human) (UniProt Q9UKV8); assay: as above
[22] = target: HA-Ago2(226–859) (human) (UniProt Q9UKV8); assay: as above
[23] = target: HA-Ago2(73–859) (human) (UniProt Q9UKV8); assay: as above
[24] = target: HA-Ago2(D218F) (human) (UniProt Q9UKV8); assay: as above
[25] = target: HA-Ago2(E186F) (human) (UniProt Q9UKV8); assay: as above
[26] = target: HA-Ago2(E197F) (human) (UniProt Q9UKV8); assay: as above
[27] = target: HA-Ago2K212R, in HEK293 (human) (UniProt Q9UKV8); assay: as above
[28] = target: eGFP-Ago2(175–226)-His (human) (UniProt Q9UKV8); assay: as above

binding [1]: binds
Substance: CAV1-Flag(61–178) (from UniProt Q03135 61-178) (domain or fragment)

binding [1]: no binding
Substance: CAV1-Flag(102–178) (from UniProt Q03135 102-178) (domain or fragment)

binding [1]: binds
Substance: CAV1-Flag(∆61–84) (from UniProt Q03135 1-178)

binding [1]: no binding
Substance: CAV1-Flag(∆84–102) (from UniProt Q03135 1-178)

binding [1]: no binding
Substance: CSD-mutated CAV1-Flag (F92A/V94A) (from UniProt Q03135 1-178)

binding [2]: binds | binding [3]: binds | binding [4]: binds | binding [5]: no binding | binding [6]: binds | binding [7]: no binding | binding [8]: binds
Substance: Caveolin-1 (CAV1), endogenous (from UniProt Q03135 1-178)

binding [9]: no binding | binding [10]: no binding | binding [11]: binds | binding [12]: binds | binding [13]: binds | binding [14]: binds | binding [15]: binds | binding [16]: binds | binding [17]: no binding | binding [18]: binds | binding [19]: binds | binding [20]: binds | binding [21]: binds | binding [22]: no binding | binding [23]: binds | binding [24]: binds | binding [25]: binds | binding [26]: binds | binding [27]: binds | binding [1]: binds | binding [28]: binds
Substance: Flag-labeled human CAV1 (CAV1-Flag), full length, wild type (from UniProt Q03135 1-178)

binding [1]: binds
Substance: His-CAV1(82–101) mRuby (from UniProt Q03135 82-101) (domain or fragment)
